Assay results taken from paper PMC4336329 (PLoS ONE, 2015).
In all, about 310,000 compounds went through this assay and about 2,200 (0.71%) showed an effect of 50% or more. Effects have a minus sign here. Some of the results follow.

target: human ether-à-go-go-related gene (hERG) potassium channel (human, UniProt Q12809); experiment: primary screen, population patch clamp on CHO cells stably expressing hERG
Sequence (Q12809 whole entry, looked up): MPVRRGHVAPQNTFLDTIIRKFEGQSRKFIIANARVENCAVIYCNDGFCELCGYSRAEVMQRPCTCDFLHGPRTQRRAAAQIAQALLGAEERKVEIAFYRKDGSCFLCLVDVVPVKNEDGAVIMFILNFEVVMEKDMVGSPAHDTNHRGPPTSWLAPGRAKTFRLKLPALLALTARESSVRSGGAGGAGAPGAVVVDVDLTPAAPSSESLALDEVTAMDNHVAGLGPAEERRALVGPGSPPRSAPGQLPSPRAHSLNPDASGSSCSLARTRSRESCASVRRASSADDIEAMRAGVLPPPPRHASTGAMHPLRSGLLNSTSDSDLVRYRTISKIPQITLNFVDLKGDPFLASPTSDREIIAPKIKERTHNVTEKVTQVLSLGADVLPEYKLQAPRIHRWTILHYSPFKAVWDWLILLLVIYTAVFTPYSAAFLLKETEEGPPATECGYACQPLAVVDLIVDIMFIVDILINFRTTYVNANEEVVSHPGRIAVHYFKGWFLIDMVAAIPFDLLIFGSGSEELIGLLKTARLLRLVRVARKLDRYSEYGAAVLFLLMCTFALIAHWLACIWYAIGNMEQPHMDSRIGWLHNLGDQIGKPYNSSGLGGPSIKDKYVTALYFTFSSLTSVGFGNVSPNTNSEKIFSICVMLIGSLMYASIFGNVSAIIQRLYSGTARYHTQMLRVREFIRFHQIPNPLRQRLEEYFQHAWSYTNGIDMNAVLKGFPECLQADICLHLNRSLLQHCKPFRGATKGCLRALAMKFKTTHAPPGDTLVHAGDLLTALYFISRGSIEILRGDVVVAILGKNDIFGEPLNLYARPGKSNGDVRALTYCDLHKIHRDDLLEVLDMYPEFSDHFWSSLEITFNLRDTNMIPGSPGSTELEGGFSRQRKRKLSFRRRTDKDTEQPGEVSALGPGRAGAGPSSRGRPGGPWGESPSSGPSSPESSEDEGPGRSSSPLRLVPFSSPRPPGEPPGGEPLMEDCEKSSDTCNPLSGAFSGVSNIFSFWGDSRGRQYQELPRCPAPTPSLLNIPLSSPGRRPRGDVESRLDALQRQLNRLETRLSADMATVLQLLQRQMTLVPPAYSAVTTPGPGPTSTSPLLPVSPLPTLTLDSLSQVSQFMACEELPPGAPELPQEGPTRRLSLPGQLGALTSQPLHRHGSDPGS

Row | Structure (SMILES) | hERG current change (%, negative = inhibition) at 1uM [%]
1 | COc1ccc(N(C)S(=O)(=O)c2cccc(C(=O)Nc3ccc(OC)nc3)c2)cc1 | 9.59
2 | CCN(CC)S(=O)(=O)c1ccc(NC2c3ccccc3C(=O)N2c2ccc(C)cn2)cc1 (stereo not drawn) | 18.3
3 | COc1ccc(OC)c(Nc2nc(NCCO)c3ccccc3n2)c1.Cl | 11.1
4 | CCN=C1SC(CC(=O)Nc2ccccc2OCC)C(=O)N1CC (stereo not drawn) | -7.13
5 | CN1CCN(c2nc3c(c(=O)n(C)c(=O)n3C)n2CCSc2nnnn2-c2ccccc2)CC1 | 10.4
6 | O=C1CCC/C(=N\NC(=O)NC2CCCCC2)C1 | -3.81
7 | CCc1cc2cc(C)ccc2nc1SCC(=O)NNC(=O)c1ccco1 | 5.1
8 | O=C(c1c[nH]c2ccccc12)N1CCOCC1 | 10.7
9 | O=C(NNC(=O)c1ccccc1-n1cccc1)c1ccc(F)cc1 | 9.83
10 | COc1ccc2[nH]c(=O)c(CN(C(=O)c3cccnc3)c3cc(C)ccc3C)cc2c1 | 1.43
11 | Cc1ccc2c(N)c(C(=O)N(c3ccccc3)c3ccccc3)sc2n1 | 25.3
12 | COc1ccccc1NC(=O)COC(=O)/C=C/c1ccccc1[N+](=O)[O-] | 3.16
13 | Cc1c(NC(=O)c2cc(-c3ccco3)on2)c(=O)n(-c2ccccc2)n1C | 11.4
14 | Cc1ccc(CNC(=O)COC(=O)[C@@H]2CC(O)CN2S(=O)(=O)c2ccc3c(c2)OCCO3)cc1 (stereo partly drawn) | 6.07
15 | O=C(CNC(=O)c1cnccn1)Nc1ccc(F)c(F)c1F | 18
16 | N#CC1(NC(=O)CSc2nnc(COc3ccccc3F)n2N)CCCCC1 | 11.8
17 | CC1CCc2c(sc(NC(=O)C3c4ccccc4Oc4ccccc43)c2C(N)=O)C1 (stereo not drawn) | 4.65
18 | CC(=O)c1c(C)[nH]c(-c2ccccc2)c1C | 10.4
19 | CC(OC(=O)CC1CCCCC1)C(=O)Nc1ccc(S(N)(=O)=O)cc1 (stereo not drawn) | 0.0288
20 | CN(C(=O)c1cncc(Br)c1)c1c(N)n(Cc2ccccc2)c(=O)[nH]c1=O | 9.13
21 | O=C(CNc1ccccc1Cl)c1ccc(Br)cc1 | 8.01
22 | O=C(c1ccc2c(c1)OCCO2)C1CCN(S(=O)(=O)c2ccc(F)cc2)CC1 | -6.43
23 | CCCCn1c(N)c(N(CC)C(=O)CSCC(=O)Nc2ccc(OC)cc2)c(=O)[nH]c1=O | 19.4

Row | Structure (SMILES) | hERG current change (%, negative = inhibition) at 1uM [%]
24 | C[C@H](NC(=O)c1cc2c([nH]c3ccccc32)c(-c2ccccc2)n1)C(=O)O | 8.39
25 | CC(C)c1cc(N2CCN(C(=O)c3ccco3)CC2)n2c(nc3ccccc32)c1C#N | -9.3
26 | O=C(Nc1ccc(N2CCOCC2)cc1)Nc1ccc2nsnc2c1 | 10.9
27 | COC(=O)c1cc(C#N)c(N2CC(C)OC(C)C2)nc1C (stereo not drawn) | 14.9
28 | CCOc1c(Br)cc(C(N)=O)cc1OC | 19.2
29 | C=CCn1c(N)nc2ccccc21.Cl | 12.5
30 | CCCNC(=O)CN1C(=O)NC(CCSC)C1=O (stereo not drawn) | 13.1
31 | O=C(Nc1ccccc1)/C(=C\c1ccncc1)NC(=O)c1ccccc1 | 4.01
32 | COc1ccc(Cl)cc1NC(=S)Nc1cccc(C)c1 | 14.9
33 | O=C(CNC(=O)c1ccccc1Cl)NCC(c1cccs1)N1CCOCC1 (stereo not drawn) | 9.1
34 | CCn1c(=S)sc2c(=O)n(-c3ccccc3)c(SCC(=O)NCc3ccco3)nc21 | -19.2
35 | COc1ccc(OC)c(C2C(C(=O)N(C)C)=C(C)Nc3nc4ccccc4n32)c1 (stereo not drawn) | -2.64
36 | CCOc1ccccc1C(=O)Nc1nnc(SCC(=O)Nc2cc(C)on2)s1 | 6.85
37 | CCOCCCN(C(=O)CNC(=O)c1ccco1)C(C(=O)NC1CCCC1)c1cccc(OC)c1 (stereo not drawn) | 6.62
38 | CSc1ccc(C(=O)NCC(=O)O)cc1[N+](=O)[O-] | 4.62
39 | CCc1nnc(NC(=O)c2ccc3ncsc3c2)s1 | 16.3
40 | COc1cccc2cc(C(=O)NCCc3c[nH]c4ccccc34)c(=O)oc12 | 13
41 | Cc1cc(C)c(C(CC(=O)c2cccs2)C(C#N)C#N)c(C)c1 (stereo not drawn) | 4.34
42 | O=C(N/N=C/c1ccccc1OCc1ccccc1Cl)c1cccnc1 | 6.93
43 | O=C1CCN(CCc2ccccc2)CCN1CCOc1ccccc1 | -33
44 | COCCNC(=O)Cn1cc(/C=C(\C#N)C(=O)NC2CC2)c2ccccc21 | 11
45 | CN1CCN(C(=O)/C(=C/c2ccccc2F)NC(=O)c2ccccc2)CC1 | -2.89
